Source: patent US20250121078A1, “PEPTIDE DRUG CONJUGATES AND THEIR USES” (priority 2023, published 2025)
For at least one compound, name, drawing or mass did not settle the structure. *1 amine or outer side, *2 acyl side, *3 side chain or, on linkers, in order; H or OH if unused. Where a SMILES comes first, the peptide text is derived from it. Side-chain parts run from the residue outwards. [ ]: non-standard residue; d: D form. The star is where a group is joined. X2 = COc1cc2cc(c1Cl)N(C)C(=O)C[C@H](OC(=O)[C@H](C)N(C)C(=O)CCSSCCC(=O)NCCOCCOCCn1nnc3c1CC[C@H]1[C@@H](CC3)[C@@H]1COC(=O)*)[C@]1(C)O[C@H]1[C@H](C)[C@@H]1C[C@@](O)(NC(=O)O1)[C@H](OC)/C=C/C=C(\C)C2; X6 = CCc1c2c(nc3ccc(OC(=O)c4ccc(CN(CCOCCOCCn5nnc6c5CC[C@@H]5[C@H](CC6)[C@H]5COC(=O)*)C(=O)C5(c6ccc(Cl)cc6)CCCCC5)cc4)cc13)-c1cc3c(c(=O)n1C2)COC(=O)[C@]3(O)CC; X4 = CCc1c2c(nc3ccc(OC(=O)c4ccc(CN(CCOCCOCCN*)C(=O)C5(c6ccc(Cl)cc6)CCCCC5)cc4)cc13)-c1cc3c(c(=O)n1C2)COC(=O)[C@]3(O)CC; dPhe(4-NHCONH2) = NC(=O)Nc1ccc(C[C@@H](N)C(=O)O)cc1; Dihydroorotyl(S) = O=C1C[C@@H](C(=O)*)NC(=O)N1; X3 = CC(C)N(CCCC[C@H](N[*:1])C(=O)[*:2])[*:3]; d(hArg(Et2)) = CCN=C(NCC)NCCCC[C@@H](N)C(=O)O; dPhe(4-Cl) = N[C@H](Cc1ccc(Cl)cc1)C(=O)O; Phe(4-NH2) = Nc1ccc(C[C@H](N)C(=O)O)cc1; d2Nal = N[C@H](Cc1ccc2ccccc2c1)C(=O)O; NMeY = CN[C@@H](Cc1ccc(O)cc1)C(=O)O; d3Pal = N[C@H](Cc1cccnc1)C(=O)O; CO = O=C([*:1])[*:2]

The molecules below were run against T1, LHRHR, also known as GnRHR (Homo sapiens, UniProt P30968) (assay: Radioligand binding assay ([125I]-[D-Trp6]-LHRH displacement)). Conditions: purified membrane with LHRHR, 0.18 nM [125I]-[D-Trp6]-LHRH, 1 h at 25° C.; read-out: Binding Assay.
T1 sequence (P30968 1-328): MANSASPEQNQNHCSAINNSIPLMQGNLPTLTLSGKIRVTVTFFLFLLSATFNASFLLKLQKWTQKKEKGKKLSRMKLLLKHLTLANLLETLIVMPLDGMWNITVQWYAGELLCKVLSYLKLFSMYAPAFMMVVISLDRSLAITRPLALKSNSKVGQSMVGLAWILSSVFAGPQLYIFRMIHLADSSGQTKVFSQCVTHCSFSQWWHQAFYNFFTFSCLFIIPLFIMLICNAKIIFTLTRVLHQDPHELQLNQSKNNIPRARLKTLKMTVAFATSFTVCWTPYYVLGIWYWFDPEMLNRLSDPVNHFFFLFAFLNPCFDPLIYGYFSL
Protocol: An amount of 2 μg of a purified membrane with LHRHR, also known as GnRHR, was incubated with 0.18 nM [125I]-[D-Trp6]-LHRH and compounds of interest in the incubation buffer (50 mM HEPES, pH 7.4, 5 mM MgCl2, 1 mM CaCl2, and 0.2% BSA). The reaction mixtures were incubated for 1 h at 25° C. and then were transferred to a 96-well GF/B filter plate (Millipore Corp., Billerica, MA, USA), which were terminated by manifold filtration and washed with a wash buffer (50 mM HEPES, pH 7.4, and 100 mM NaCl) for six times. The radioactivity bound to the filter was measured by a Topcount® system (PerkinElmer Inc., Waltham, MA, USA). IC50 values were determined by the concentration of a compound required to inhibit 50% of the specific binding of [125I]-[D-Trp6]-LHRH and calculated by nonlinear regression (GraphPad Software, San Diego, CA, USA). The design of these drug conjugates is to actively targeting LHRH-receptor at tumor site and facilitate drug conjugate accumulation in situ. Therefore, selective and strong binding of the synthetic peptide ligand with the receptor is important to allow enrichment of these conjugates, followed by release of the drug payload in the tumor microenvironment.
Compounds of the invention have a binding as low as 0.17 nM.

SMILES	IC50 [nM]
CCc1c2c(nc3ccc(OC(=O)c4ccc(CN(CCOCCOCCn5nnc6c5CC[C@@H]5[C@H](CC6)[C@H]5COC(=O)N(CCCC[C@H](NC(=O)[C@H](CC(C)C)NC(=O)[C@@H](Cc5ccc(NC(N)=O)cc5)NC(=O)[C@H](Cc5ccc(NC(=O)[C@@H]6CC(=O)NC(=O)N6)cc5)NC(=O)[C@H](CO)NC(=O)[C@@H](Cc5cccnc5)NC(=O)[C@@H](Cc5ccc(Cl)cc5)NC(=O)[C@@H](Cc5ccc6ccccc6c5)NC(C)=O)C(=O)N5CCC[C@H]5C(=O)N[C@H](C)C(N)=O)C(C)C)C(=O)C5(c6ccc(Cl)cc6)CCCCC5)cc4)cc13)-c1cc3c(c(=O)n1C2)COC(=O)[C@]3(O)CC [Compound 15]	1 to 10

Same assay, conditions: read-out: Binding Assay; purified membrane with LHRHR, 0.18 nM [125I]-[D-Trp6]-LHRH, 1 h at 25° C.

SMILES	IC50 [nM]
COc1cc2cc(c1Cl)N(C)C(=O)C[C@H](OC(=O)[C@H](C)N(C)C(=O)CCSC(=O)c1ccc(CN(CCOCCOCCn3nnc4c3CC[C@@H]3[C@H](CC4)[C@H]3COC(=O)N(CCCC[C@H](NC(=O)[C@H](CC(C)C)NC(=O)[C@@H](Cc3ccc(NC(N)=O)cc3)NC(=O)[C@H](Cc3ccc(NC(=O)[C@@H]4CC(=O)NC(=O)N4)cc3)NC(=O)[C@H](CO)NC(=O)[C@@H](Cc3cccnc3)NC(=O)[C@@H](Cc3ccc(Cl)cc3)NC(=O)[C@@H](Cc3ccc4ccccc4c3)NC(C)=O)C(=O)N3CCC[C@H]3C(=O)N[C@H](C)C(N)=O)C(C)C)C(=O)C3(c4ccc(Cl)cc4)CCCCC3)cc1)[C@]1(C)O[C@H]1[C@H](C)[C@@H]1C[C@@](O)(NC(=O)O1)[C@H](OC)/C=C/C=C(\C)C2 [Compound 9]	1 to 10
CCc1c2c(nc3ccc(OC(=O)c4ccc(CN(CCOCCOCCn5nnc6c5CC[C@@H]5[C@H](CC6)[C@H]5COC(=O)NCCCC[C@H](NC(=O)[C@H](CC(C)C)NC(=O)[C@@H](CC(N)=O)NC(=O)[C@H](Cc5ccc(O)cc5)N(C)C(=O)[C@H](CO)NC(=O)[C@@H](Cc5cccnc5)NC(=O)[C@@H](Cc5ccc(Cl)cc5)NC(=O)[C@@H](Cc5ccc6ccccc6c5)NC(C)=O)C(=O)N5CCC[C@H]5C(=O)N[C@H](C)C(N)=O)C(=O)C5(c6ccc(Cl)cc6)CCCCC5)cc4)cc13)-c1cc3c(c(=O)n1C2)COC(=O)[C@]3(O)CC [Compound 10] (Ac-[d2Nal][dPhe(4-Cl)][d3Pal]S[NMeY][dN]LK(X6)P[dA]-NH2)	1 to 10
CCNC(=NCCCC[C@@H](NC(=O)[C@H](CC(C)C)NC(=O)[C@@H](CCCCNC(=O)OC[C@H]1[C@@H]2CCc3nnn(CCOCCOCCN(Cc4ccc(C(=O)SCCC(=O)N(C)[C@@H](C)C(=O)O[C@H]5CC(=O)N(C)c6cc(cc(OC)c6Cl)C/C(C)=C/C=C/[C@@H](OC)[C@@]6(O)C[C@H](OC(=O)N6)[C@@H](C)[C@@H]6O[C@@]56C)cc4)C(=O)C4(c5ccc(Cl)cc5)CCCCC4)c3CC[C@@H]21)NC(=O)[C@H](Cc1ccc(O)cc1)NC(=O)[C@H](CO)NC(=O)[C@@H](Cc1cccnc1)NC(=O)[C@@H](Cc1ccc(Cl)cc1)NC(=O)[C@@H](Cc1ccc2ccccc2c1)NC(C)=O)C(=O)N1CCC[C@H]1C(=O)N[C@H](C)C(N)=O)NCC [Compound 11]	10 to 100
COc1cc2cc(c1Cl)N(C)C(=O)C[C@H](OC(=O)[C@H](C)N(C)C(=O)CCSC(=O)c1ccc(CN(CCOCCOCCn3nnc4c3CC[C@H]3[C@@H](CC4)[C@@H]3COC(=O)NCCCC[C@@H](NC(=O)[C@H](Cc3ccc(O)cc3)NC(=O)[C@H](CO)NC(=O)[C@@H](Cc3cccnc3)NC(=O)[C@@H](Cc3ccc(Cl)cc3)NC(=O)[C@@H](Cc3ccc4ccccc4c3)NC(C)=O)C(=O)N[C@@H](CC(C)C)C(=O)N[C@@H](CCCNC(=N)N)C(=O)N3CCC[C@H]3C(=O)N[C@H](C)C(N)=O)C(=O)C3(c4ccc(Cl)cc4)CCCCC3)cc1)[C@]1(C)O[C@H]1[C@H](C)[C@@H]1C[C@@](O)(NC(=O)O1)[C@H](OC)/C=C/C=C(\C)C2 [Compound 16]	0.1 to 1
CCc1c2c(nc3ccc(OC(=O)c4ccc(CN(CCOCCOCCNC(=O)N(CCCC[C@H](NC(=O)[C@H](CC(C)C)NC(=O)[C@@H](Cc5ccc(NC(N)=O)cc5)NC(=O)[C@H](Cc5ccc(NC(=O)[C@@H]6CC(=O)NC(=O)N6)cc5)NC(=O)[C@H](CO)NC(=O)[C@@H](Cc5cccnc5)NC(=O)[C@@H](Cc5ccc(Cl)cc5)NC(=O)[C@@H](Cc5ccc6ccccc6c5)NC(C)=O)C(=O)N5CCC[C@H]5C(=O)N[C@H](C)C(N)=O)C(C)C)C(=O)C5(c6ccc(Cl)cc6)CCCCC5)cc4)cc13)-c1cc3c(c(=O)n1C2)COC(=O)[C@]3(O)CC [Compound 18] (Ac-[d2Nal][dPhe(4-Cl)][d3Pal]S[Phe(4-NH2)](Dihydroorotyl(S))[dPhe(4-NHCONH2)]L[X3]([CO-X4])P[dA]-NH2)	1 to 10
COc1cc2cc(c1Cl)N(C)C(=O)C[C@H](OC(=O)[C@H](C)N(C)C(=O)CCSC(=O)c1ccc(CN(CCOCCOCCNC(=O)OC[C@H]3[C@@H]4CCc5c(nnn5CCCC[C@@H](NC(=O)[C@H](Cc5ccc(O)cc5)NC(=O)[C@H](CO)NC(=O)[C@@H](Cc5cccnc5)NC(=O)[C@@H](Cc5ccc(Cl)cc5)NC(=O)[C@@H](Cc5ccc6ccccc6c5)NC(C)=O)C(=O)N[C@@H](CC(C)C)C(=O)N[C@@H](CCCNC(=N)N)C(=O)N5CCC[C@H]5C(=O)N[C@H](C)C(N)=O)CC[C@@H]43)C(=O)C3(c4ccc(Cl)cc4)CCCCC3)cc1)[C@]1(C)O[C@H]1[C@H](C)[C@@H]1C[C@@](O)(NC(=O)O1)[C@H](OC)/C=C/C=C(\C)C2 [Compound 21]	0.1 to 1
COc1cc2cc(c1Cl)N(C)C(=O)C[C@H](OC(=O)[C@H](C)N(C)C(=O)CCC(C)(C)S/C(=C\C#N)c1ccc(NC(=O)OCC3C4CCc5nnn(CCCC[C@@H](NC(=O)[C@H](Cc6ccc(O)cc6)NC(=O)[C@H](CO)NC(=O)[C@@H](Cc6cccnc6)NC(=O)[C@@H](Cc6ccc(Cl)cc6)NC(=O)[C@@H](Cc6ccc7ccccc7c6)NC(C)=O)C(=O)N[C@@H](CC(C)C)C(=O)N[C@@H](CCCNC(=N)N)C(=O)N6CCC[C@H]6C(=O)N[C@H](C)C(N)=O)c5CCC43)cc1)[C@]1(C)O[C@H]1[C@H](C)[C@@H]1C[C@@](O)(NC(=O)O1)[C@H](OC)/C=C/C=C(\C)C2 (stereo partly drawn) [Compound 22]	0.1 to 1
COc1cc2cc(c1Cl)N(C)C(=O)C[C@H](OC(=O)[C@H](C)N(C)C(=O)CCSSCCC(=O)NCCOCCOCCn1nnc3c1CC[C@H]1[C@@H](CC3)[C@@H]1COC(=O)NCCCC[C@@H](NC(=O)[C@H](Cc1ccc(O)cc1)NC(=O)[C@H](CO)NC(=O)[C@@H](Cc1cccnc1)NC(=O)[C@@H](Cc1ccc(Cl)cc1)NC(=O)[C@@H](Cc1ccc3ccccc3c1)NC(C)=O)C(=O)N[C@@H](CC(C)C)C(=O)N[C@@H](CCCNC(=N)N)C(=O)N1CCC[C@H]1C(=O)N[C@H](C)C(N)=O)[C@]1(C)O[C@H]1[C@H](C)[C@@H]1C[C@@](O)(NC(=O)O1)[C@H](OC)/C=C/C=C(\C)C2 [Compound 25] (Ac-[d2Nal][dPhe(4-Cl)][d3Pal]SY[dK](X2)LRP[dA]-NH2)	0.1 to 1
CCNC(=NCCCC[C@@H](NC(=O)[C@H](CC(C)C)NC(=O)[C@@H](CCCCNC(=O)OC[C@H]1[C@@H]2CCc3nnn(CCOCCOCCNC(=O)CCSSCCC(=O)N(C)[C@@H](C)C(=O)O[C@H]4CC(=O)N(C)c5cc(cc(OC)c5Cl)C/C(C)=C/C=C/[C@@H](OC)[C@@]5(O)C[C@H](OC(=O)N5)[C@@H](C)[C@@H]5O[C@@]45C)c3CC[C@@H]21)NC(=O)[C@H](Cc1ccc(O)cc1)NC(=O)[C@H](CO)NC(=O)[C@@H](Cc1cccnc1)NC(=O)[C@@H](Cc1ccc(Cl)cc1)NC(=O)[C@@H](Cc1ccc2ccccc2c1)NC(C)=O)C(=O)N1CCC[C@H]1C(=O)N[C@H](C)C(N)=O)NCC [Compound 26] (Ac-[d2Nal][dPhe(4-Cl)][d3Pal]SY[dK](X2)L[d(hArg(Et2))]P[dA]-NH2)	1 to 10
COc1cc2cc(c1Cl)N(C)C(=O)C[C@H](OC(=O)[C@H](C)N(C)C(=O)CCSC(=O)c1ccc(CN(CCOCCOCCn3nnc4c3CC[C@H]3[C@@H](CC4)[C@@H]3COC(=O)NCCCC[C@@H](NC(=O)[C@H](Cc3ccc(O)cc3)NC(=O)[C@H](CO)NC(=O)[C@@H](Cc3cccnc3)NC(=O)[C@@H](Cc3ccc(Cl)cc3)NC(=O)[C@@H](Cc3ccc4ccccc4c3)NC(C)=O)C(=O)N[C@@H](CC(C)C)C(=O)N[C@H](CCCNC(=N)N)C(=O)N3CCC[C@H]3C(=O)N[C@H](C)C(N)=O)C(=O)C3(c4ccc(Cl)cc4)CCCCC3)cc1)[C@]1(C)O[C@H]1[C@H](C)[C@@H]1C[C@@](O)(NC(=O)O1)[C@H](OC)/C=C/C=C(\C)C2 [Compound 27]	> 100
CCNC(=NCCCC[C@H](NC(=O)[C@H](CC(C)C)NC(=O)[C@@H](CCCCNC(=O)OC[C@H]1[C@@H]2CCc3nnn(CCOCCOCCN(Cc4ccc(C(=O)SCCC(=O)N(C)[C@@H](C)C(=O)O[C@H]5CC(=O)N(C)c6cc(cc(OC)c6Cl)C/C(C)=C/C=C/[C@@H](OC)[C@@]6(O)C[C@H](OC(=O)N6)[C@@H](C)[C@@H]6O[C@@]56C)cc4)C(=O)C4(c5ccc(Cl)cc5)CCCCC4)c3CC[C@@H]21)NC(=O)[C@H](Cc1ccc(O)cc1)NC(=O)[C@H](CO)NC(=O)[C@@H](Cc1cccnc1)NC(=O)[C@@H](Cc1ccc(Cl)cc1)NC(=O)[C@@H](Cc1ccc2ccccc2c1)NC(C)=O)C(=O)N1CCC[C@H]1C(=O)N[C@H](C)C(N)=O)NCC [Compound 28]	1 to 10
